30 compounds from PubChem BioAssay AID1745853 (National Center for Advancing Translational Sciences (NCATS), 2022) can be followed below.

Common to all, as to test: Primary Screen for Target Class Profiling of Small Molecule Inhibitors of Methyltransferases
Assay [1] concerns the target Glycine N-methyltransferase (Homo sapiens) (UniProt Q14749). The conditions noted are these: purified enzyme, MTase-Glo SAH luminescence; measured here: GNMT inhibition; at 40 µM; stronger effect = lower value. The gist of the method:
(§1)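 Each enzyme was reacted with SAM and its substrate, with compounds tested once at 40 uM; SAH formed was read by MTase-Glo luminescence.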

Assay [2] has as its target Guanidinoacetate N-methyltransferase (Homo sapiens) (UniProt Q14353). The conditions noted are these: purified enzyme, MTase-Glo SAH luminescence; measured here: GAMT inhibition; at 40 µM; stronger effect = lower value. Summed up:
as §1

Assay [3] concerns the target Histamine N-methyltransferase (Homo sapiens) (UniProt P50135). The conditions noted are these: purified enzyme, MTase-Glo SAH luminescence; measured here: HNMT inhibition; at 40 µM; stronger effect = lower value. The gist of the method:
as §1

The target of assay [4] is Nicotinamide N-methyltransferase (Homo sapiens) (UniProt P40261). The conditions noted are these: purified enzyme, MTase-Glo SAH luminescence; measured here: NNMT inhibition; at 40 µM; stronger effect = lower value. Summed up: as §1
Assay [5] has as its target Phenylethanolamine N-methyltransferase (Homo sapiens) (UniProt P11086). The following applies: purified enzyme, MTase-Glo SAH luminescence; measured here: PNMT inhibition; at 40 µM; stronger effect = lower value. The gist of the method:
as §1

Molecules are shown by their SMILES. The list shows a part of the results. These are further read-outs of the screen, such as a control signal, another cell line or another target. No call is given for them.
% is scaled to controls: 0 for no effect and ±100 for the full control effect.

For `CN(CCCc1nccn1C)C(=O)[C@H]1CCC[C@H](O)C1`, the activity change, negative = inhibition in assay [1] was -7.67%; in assay [2] it was -2.76%; in assay [3], -1.33%; in assay [4] it was -4.55%; in assay [5], -9.6%.

Turning to `CC(C)CN1CC2(C1)C(=O)N(CCCN1CCCC1=O)C(=O)[C@@H]1C[C@@H](O)CN12`, the activity change, negative = inhibition is -0.844% in assay [1]; -1.2% in assay [2]; -0.424% in assay [3]; -6.46% in assay [4]; -1.76% in assay [5].

Regarding `CN(Cc1ccc2c(c1)OCO2)C(=O)C1(C)CCOCC1`, the activity change, negative = inhibition in assay [1] is -2.6%; in assay [2] it was -0.799%; in assay [3], 0.987%; in assay [4], -1.46%; in assay [5] it was -1.14%.

For `COc1cc(OC)cc(OCc2nnc(C(=O)N3CCC[C@@H]3C)n2-c2ccccc2)c1`, the activity change, negative = inhibition was -4.66% in assay [1]; -3.26% in assay [2]; -1.12% in assay [3]; -15.2% in assay [4]; -6.34% in assay [5].

As for `CN(Cc1ccccc1)C(=O)Cn1c(=O)oc2cc(S(=O)(=O)NCc3ccccc3)ccc21`, the activity change, negative = inhibition in assay [1] is -1.65%; in assay [2], 0.087%; in assay [3] it was 3.19%; in assay [4] it was 6.17%; in assay [5] it was -1.23%.

Regarding `CN(CC1CCCN(CCc2cccc(C(F)(F)F)c2)C1)C(=O)c1ccc2[nH]ccc2c1` (stereo not given), the activity change, negative = inhibition in assay [1] was -8.94%; in assay [2] it was -10.5%; in assay [3], -15%; in assay [4], -24.8%; in assay [5], -30.7%.

With `O=C(Nc1ccc(Cl)cc1)N1Cc2c(sc3c2CCCC3)-n2cccc2C1c1ccccc1` (stereo not given), the activity change, negative = inhibition in assay [1] was -3.14%; in assay [2], 4.35%; in assay [3], -2.26%; in assay [4] it was -2.29%; in assay [5] it was 1.15%.

As for `COCCCNc1nc2c(S(=O)(=O)c3ccc(C)c(C)c3)nnn2c2ccc(Cl)cc12`, the activity change, negative = inhibition is -11.7% in assay [1]; 0% in assay [2]; 0.532% in assay [3]; -3.35% in assay [4]; -5.74% in assay [5].

In the case of `O=C1CN(Cc2ccc(Cl)cc2)S(=O)(=O)c2ccccc2N1Cc1ccccc1F`, the activity change, negative = inhibition in assay [1] is 14.8%; in assay [2], 0%; in assay [3], 9.4%; in assay [4], 5.41%; in assay [5], 7.51%.

`COc1ccc(C[C@H](NC(=O)C2=C[C@@H](Oc3cc(F)ccc3Br)[C@H](O)[C@H](O)C2)C(N)=O)cc1`: the activity change, negative = inhibition in assay [1] was -1.23%; in assay [2], -2.25%; in assay [3] it was -0.414%; in assay [4] it was -1.36%; in assay [5], 3.96%.

Turning to `CCc1ccccc1NC(=O)c1ncn2c1C(=O)N(C1CC1)C(C)(C(=O)NCc1ccc(OC)cc1)C2` (stereo not given), the activity change, negative = inhibition amounted to 1.49% in assay [1]; 2.69% in assay [2]; 12.1% in assay [3]; 4.85% in assay [4]; 9.87% in assay [5].

Take `CN(C)C[C@@H]1CN(c2ncccn2)C[C@H]1NC(=O)c1ccc(Cl)cc1`: the activity change, negative = inhibition in assay [1] was -6%; in assay [2] it was -3.67%; in assay [3], -0.653%; in assay [4] it was -3.98%; in assay [5], -0.232%.

Consider `COCCn1ncc(N2CCC(C(=O)NCCCN3CCC(N4CCCCC4)CC3)C2)cc1=O` (stereo not given), for which the activity change, negative = inhibition in assay [1] was 0.801%; in assay [2], -0.945%; in assay [3], -7.75%; in assay [4], -4.38%; in assay [5], 1.69%.

Take `OC1(CN2CCCCC2)CCN(Cc2ccc(C(F)(F)F)cc2F)C1` (stereo not given): the activity change, negative = inhibition in assay [1] is -1.32%; in assay [2], 3.58%; in assay [3] it was 0.314%; in assay [4], -0.538%; in assay [5], 0.352%.

With `Cc1ccc(C(=O)Cn2nc3n(C)c(=O)c4ccc(C(=O)NC5CCCCC5)cc4n3c2=O)c(C)c1`, the activity change, negative = inhibition in assay [1] turned out to be 1.23%; in assay [2], 2%; in assay [3], 0.391%; in assay [4], 10.9%; in assay [5], 2.4%.

Regarding `O=C(NCc1cccnc1)[C@@H]1C[C@@H](O)CN1C1CCN(C(=O)COc2ccccc2)CC1`, the activity change, negative = inhibition was -3.61% in assay [1]; -7.92% in assay [2]; -4.05% in assay [3]; -7.85% in assay [4]; -5.83% in assay [5].

As to `Cc1ccccc1CNC(=O)C(C)n1ccc2cc(S(=O)(=O)N3CCCCC3)ccc21` (stereo not given), the activity change, negative = inhibition in assay [1] worked out at 4.88%; in assay [2], 0%; in assay [3], 7.63%; in assay [4], 5.88%; in assay [5] it was 5.49%.

In the case of `COc1ccc(OC)c(NC(=O)Cn2c(=O)c3ccc(Cl)cc3n3nncc23)c1`, the activity change, negative = inhibition was found to be 0.926% in assay [1]; 0% in assay [2]; 6.11% in assay [3]; 0.622% in assay [4]; 1.24% in assay [5].

In the case of `CCCn1c(=O)c2ccc(Cl)cc2n2c(SCc3cccc(OC)c3)nnc12`, the activity change, negative = inhibition in assay [1] was -7.77%; in assay [2], -1.53%; in assay [3], -1.18%; in assay [4], -5.92%; in assay [5], -1.62%.

As for `COc1cc(NC(=O)c2cc3n(n2)CC(C)(C(=O)NC2CCCCCC2)N(C)C3=O)cc(OC)c1` (stereo not given), the activity change, negative = inhibition in assay [1] is -2.24%; in assay [2], 1.07%; in assay [3], 2.33%; in assay [4] it was -4.16%; in assay [5], -0.962%.

For the compound `CC(C)N1CCN(C(=O)C2N(C(C)C)C(=O)C23CCCC3)CC1` (stereo not given), the activity change, negative = inhibition in assay [1] is 0.77%; in assay [2], 2.37%; in assay [3], 2.05%; in assay [4], -3.08%; in assay [5], 3.65%.

As for `CN(Cc1ccc2nonc2c1)Cc1cn(-c2ccccc2)nn1`, the activity change, negative = inhibition in assay [1] was -2.04%; in assay [2], 0.072%; in assay [3] it was 0.967%; in assay [4], -3.83%; in assay [5], -12.7%.

Regarding `CC1(C(=O)NC2CCCCC2)Cn2nc(-c3cccs3)cc2C(=O)N1CCc1ccc(Cl)cc1` (stereo not given), the activity change, negative = inhibition in assay [1] is -2.41%; in assay [2], 3.14%; in assay [3], -2.56%; in assay [4] it was 2.4%; in assay [5], -0.932%.

Consider `CCNC(=O)[C@@H]1C[C@H](NC(=O)c2oc(C)nc2C)CN1Cc1nc(C)no1`, for which the activity change, negative = inhibition is -0.238% in assay [1]; -1.19% in assay [2]; 0.717% in assay [3]; -4.7% in assay [4]; -5.48% in assay [5].

Take `N#Cc1ccc(Nc2nc(-c3ccc(O)cc3O)cs2)cc1C(F)(F)F`: the activity change, negative = inhibition in assay [1] was -24.4%; in assay [2] it was -8.85%; in assay [3], -16.8%; in assay [4] it was -30.6%; in assay [5] it was -16.4%.

`COc1cccc(CN2C[C@]34C=C[C@H](O3)C(C(=O)N3CCCCC3)C4C2=O)c1` (stereo not given in full): the activity change, negative = inhibition in assay [1] was -2.58%; in assay [2], -14.5%; in assay [3], -3.81%; in assay [4], -17.8%; in assay [5] it was -10.1%.

Consider `Clc1ccccc1CNc1nc2c(-c3ccccc3)nnn2c2ccccc12`, for which the activity change, negative = inhibition in assay [1] was -5.59%; in assay [2], -2.56%; in assay [3], -9.45%; in assay [4], -8.78%; in assay [5] it was -12.9%.

As to `CN(C)c1ccc(-c2noc([C@@H]3CCCN3C3CCOCC3)n2)cn1`, the activity change, negative = inhibition in assay [1] was -5.6%; in assay [2], -6.82%; in assay [3] it was -4.08%; in assay [4] it was -7.96%; in assay [5] it was -1.17%.

Take `CCOc1ccc(C(=O)Cn2nc3n(CCCOC(C)C)c(=O)c4ccccc4n3c2=O)cc1`: the activity change, negative = inhibition in assay [1] is -3.25%; in assay [2], 2.95%; in assay [3], 2.41%; in assay [4] it was -4.38%; in assay [5], -2.09%.

Turning to `CCCCCNc1nc2c(S(=O)(=O)c3ccc(C)cc3)nnn2c2ccccc12`, the activity change, negative = inhibition in assay [1] was 0.808%; in assay [2], 0%; in assay [3], 4%; in assay [4], -1.19%; in assay [5] it was -2.83%.
